No constants are given. Whether binding was seen depends on the method and setting. In cells and extracts the contact can be indirect. Some binding calls cover weakened binding; strength is not graded here. Each block holds one molecule with its values, some of them ahead of it.
Assays:
[1] = target: KIFC1 in HEK293T cells (human (endogenous in HEK293T)) (UniProt Q9BW19); assay: co-IP; IP of KIFC1 and immunoblotting with GFP antibody in mitotic HEK293T cells transfected with GFP-labelled TACC3 vectors (Fig. 3O)
[2] = target: HDAC2 in HEK293T cells (human (endogenous in HEK293T)) (UniProt Q92769); assay: co-IP; IP of HDAC2 or MBD2 and immunoblotting with GFP antibody in HEK293T cells transfected with GFP-labelled TACC3 vectors (Fig. 5K)
[3] = target: MBD2 in HEK293T cells (human (endogenous in HEK293T)) (UniProt Q9UBB5); assay: as above
[4] = target: Transforming Acidic Coiled-Coil Containing Protein 3 (TACC3), endogenous (human (endogenous in JIMT-1)) (UniProt Q9Y6A5); assay: co-IP; IP of endogenous TACC3 in JIMT-1 cells synchronized at interphase (G1), untreated or treated with BO-264 (5 µM) for 4 h (Fig. 5J)
APEX2-TACC3 [5] = target: APEX2-TACC3 (UniProt Q9Y6A5); assay: co-IP; TACC3 pulldown (IP) in APEX2-TACC3 overexpressing JIMT-1 cells synchronized at interphase (G1, double thymidine block) (Fig. 5H)
APEX2-TACC3 [6] = target: APEX2-TACC3 (UniProt Q9Y6A5); assay: co-IP; IP of TACC3 in APEX2-TACC3 overexpressing mitotic JIMT-1 cells, Western blotting of partners (Fig. 3H)
[7] = target: Transforming Acidic Coiled-Coil Containing Protein 3 (TACC3), endogenous (human (endogenous in JIMT-1)) (UniProt Q9Y6A5); assay: co-IP; IP of endogenous TACC3 in JIMT-1 cells synchronized at mitosis, untreated (Fig. 3I)
[8] = target: Transforming Acidic Coiled-Coil Containing Protein 3 (TACC3), endogenous (human (endogenous in JIMT-1)) (UniProt Q9Y6A5); assay: co-IP; IP of endogenous TACC3 in JIMT-1 cells synchronized at interphase (G1), untreated or treated with BO-264 (5 µM) for 4 h (Fig. 5J); remark: listed apart in the source
[9] = target: Transforming Acidic Coiled-Coil Containing Protein 3 (TACC3), endogenous (human (endogenous in JIMT-1)) (UniProt Q9Y6A5); assay: condition: only cells treated with BO-264 (5 µM) for 4 h; co-IP; IP of endogenous TACC3 in JIMT-1 cells synchronized at mitosis and treated with BO-264 for 4 h (5 µM) (Fig. 3I)
APEX2-TACC3 [10] = target: APEX2-TACC3 (UniProt Q9Y6A5); assay: co-IP; TACC3 pulldown (IP) in APEX2-TACC3 overexpressing JIMT-1 cells synchronized at interphase (G1, double thymidine block) (Fig. 5H); remark: listed apart in the source

- binding [1]: binds
- binding [2]: binds
- binding [3]: binds
Molecule: GFP-labelled C-terminal region of TACC3 (594-838 aa) (from UniProt Q9Y6A5 594-838) (domain or fragment)

- binding [4]: binds
- binding (APEX2-TACC3 [5]): binds
Molecule: MBD2, endogenous in JIMT-1 (from UniProt Q9UBB5 1-411)

- binding (APEX2-TACC3 [6]): binds
- binding [7]: binds
- binding [8]: binds weakly
- binding [9]: no binding
- binding (APEX2-TACC3 [10]): binds weakly
B1: Kinesin Family Member C1 (KIFC1), endogenous in JIMT-1 (protein, UniProt Q9BW19 1-673)
chain: MDPQRSPLLEVKGNIELKRPLIKAPSQLPLSGSRLKRRPDQMEDGLEPEKKRTRGLGATTKITTSHPRVPSLTTVPQTQGQTTAQKVSKKTGPRCSTAIATGLKNQKPVPAVPVQKSGTSGVPPMAGGKKPSKRPAWDLKGQLCDLNAELKRCRERTQTLDQENQQLQDQLRDAQQQVKALGTERTTLEGHLAKVQAQAEQGQQELKNLRACVLELEERLSTQEGLVQELQKKQVELQEERRGLMSQLEEKERRLQTSEAALSSSQAEVASLRQETVAQAALLTEREERLHGLEMERRRLHNQLQELKGNIRVFCRVRPVLPGEPTPPPGLLLFPSGPGGPSDPPTRLSLSRSDERRGTLSGAPAPPTRHDFSFDRVFPPGSGQDEVFEEIAMLVQSALDGYPVCIFAYGQTGSGKTFTMEGGPGGDPQLEGLIPRALRHLFSVAQELSGQGWTYSFVASYVEIYNETVRDLLATGTRKGQGGECEIRRAGPGSEELTVTNARYVPVSCEKEVDALLHLARQNRAVARTAQNERSSRSHSVFQLQISGEHSSRGLQCGAPLSLVDLAGSERLDPGLALGPGERERLRETQAINSSLSTLGLVIMALSNKESHVPYRNSKLTYLLQNSLGGSAKMLMFVNISPLEENVSESLNSLRFASKVNQCVIGTAQANRK
